# Data from PubChem BioAssay AID2451 (National Center for Advancing Translational Sciences (NCATS), 2010).
# Among all 290,000 compounds or so, about 2,100 (0.72%) were called active. The shares of active, inactive and inconclusive entries below differ from those in the screen. Calls come from the whole dose curve; as a rule, active = well fitted inhibition curve with a large enough effect; inconclusive = small, poorly fitted or top-dose-only effect, or effect the other way; inactive = flat fitted curve, though single readings scatter. A potency beside an inconclusive call is a rough fit, not a confirmed value.
# Biological target: Fructose-bisphosphate aldolase (Giardia intestinalis (strain ATCC 50803 / WB clone C6)) (UniProt A8B2U2)
# Assay: qHTS Assay for Inhibitors of Fructose-1,6-bisphosphate Aldolase from Giardia Lamblia; note: nearly all actives have a fitted effect of over 55% in size
# Details: purified Giardia FBPA; activity, negative = inhibition: at 59.6 µM (top of the series) unless noted
# In short: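 Giardia FBPA (40 nM reagent) was preincubated 10 min at RT with compound (up to 57.5 uM final), then substrate plus GAPDH/TPI/NAD/arsenate coupling system with diaphorase/resazurin was added; resorufin fluorescence (525/598 nm) was read after 20 min.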
# % is set by controls: 0 for no effect and ±100 for the full control effect; potency is the fitted concentration of half-maximal effect; tags give direction and shape of the fitted curve.
# Chain of UniProt A8B2U2 (A8B2U2 whole entry, looked up): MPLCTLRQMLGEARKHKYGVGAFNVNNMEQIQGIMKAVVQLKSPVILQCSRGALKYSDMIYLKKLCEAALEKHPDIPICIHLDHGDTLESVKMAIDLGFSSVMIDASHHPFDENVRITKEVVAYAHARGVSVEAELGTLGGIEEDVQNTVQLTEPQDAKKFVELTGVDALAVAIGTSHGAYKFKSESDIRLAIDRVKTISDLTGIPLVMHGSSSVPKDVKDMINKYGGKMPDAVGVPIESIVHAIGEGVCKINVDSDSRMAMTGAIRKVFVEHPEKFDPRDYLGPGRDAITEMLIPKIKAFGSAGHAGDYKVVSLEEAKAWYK
SMILES,Potency,"activity, negative = inhibition"
O=C(Nc1nc2ccccc2s1)c1cc(-c2ccco2)nc2ccccc12,inactive,–
COc1cc(N/C=C2\CC(=O)NC(C)=C2C#N)cc(OC)c1OC,"inconclusive: 5 µM [inhibitor, full curve]",–
Cc1cccc(C)c1NC(=O)CSc1nnc(-c2ccco2)c(-c2ccco2)n1,active: 7.92 µM,–
CN1CCN(c2nc(-c3ccccc3C(F)(F)F)nc3ccccc23)CC1,inactive,–
CC(=Nc1ccc(C)cc1C)c1sc2ccccc2c1O,inactive,–
O=C(NC(=S)N1CCc2ccccc21)c1ccco1,"inconclusive: 15.8 µM [inhibitor, partial curve]",–
COc1ccccc1NC(=O)CN(Cc1ccco1)C(=O)c1cncc(Br)c1,"inconclusive: 12.6 µM [inhibitor, partial curve]",–
COc1ccc(OC)c(NC2c3ncccc3C(=O)N2Cc2ccco2)c1 (stereo not drawn),inactive,–
Cc1ccc(NC(=O)NN2CCN(C)CC2)cc1C,inactive,–
COC(=O)CSc1nnc(Cc2ccccc2)n1-c1ccc(C)cc1,inactive,–
O=C(O)CCCCCNC(=O)/C(=C\c1ccco1)NC(=O)c1ccco1,"inconclusive: 31.6 µM [inhibitor, single point]",–
CCC1=C2CC[C@H]3C(=O)N(CC(=O)OC)C(=O)[C@H]3[C@H]2[C@@]2(C)C(=O)N(CC3CC3)C(=O)N2C1=O,"inconclusive: 31.5 µM [inhibitor, single point]",–
CNC(=O)CC1C(=O)N(c2ccc(F)cc2)C(=S)N1NC(=O)c1ccc(Br)cc1 (stereo not drawn),"inconclusive: 12.6 µM [inhibitor, partial curve]",–
Cc1ccc(-c2cc(-c3ccccc3Cl)c(C#N)c(N)n2)o1,"inconclusive: 19.9 µM [inhibitor, single point]",–
N=C1/C(=C/c2cccn2Cc2ccc(F)cc2)C(=O)N=C2SC=CN12,"inconclusive: 15.8 µM [inhibitor, single point]",–
O=C(C1CCCN(Cc2cc(Br)ccc2O)C1)N1CCCCC1 (stereo not drawn),"inconclusive: 20 µM [inhibitor, single point]",–
Cc1cc(C)nc(NS(=O)(=O)c2ccc(NC(=S)NC(=O)c3cccnc3)cc2)n1,"inconclusive: 7.06 µM [inhibitor, single point]",–
Cc1nn(CC(=O)N(C)Cc2ccc(F)cc2)c(C)c1[N+](=O)[O-],–,inconclusive: 25.9% [activator]
O=[N+]([O-])c1cccc(CN2CCN(Cc3ccco3)CC2)c1,"inconclusive: 15.8 µM [inhibitor, partial curve]",–
Fc1ccccc1NC(=S)Nc1cccc2cnccc12,"inconclusive: 7.92 µM [inhibitor, partial curve]",–
O=C1N=C(N2CCOCC2)S/C1=C/c1ccc(-c2ccc(F)cc2)o1,inactive,–
CC1CC1C(=O)OCc1cc(=O)n2cc(Br)ccc2n1 (stereo not drawn),inactive,–
Cc1ccc(NC(=O)c2cc(-c3ccco3)on2)cc1,"inconclusive: 25.1 µM [activator, single point]",–
CCS(=O)(=O)N1Cc2ccccc2CC1C(=O)Nc1nnc(SCc2c(Cl)cccc2Cl)s1 (stereo not drawn),inactive,–

SMILES,Potency,"activity, negative = inhibition"
Cc1cccc(NC(=O)c2nc[nH]c2C(=O)NCC(=O)OC(C)(C)C)c1,"inconclusive: 35.4 µM [inhibitor, single point]",–
COc1ccc(CCNC(=O)C2CCN(C(=O)c3ccc(Br)cc3)CC2)cc1,inactive,–
N[C@@H](CO)C(=O)NNCc1ccc(O)c(O)c1O,active: 5.01 µM,–
CC(C)c1ccccc1NC(=O)CNCCOc1ccccc1F,"inconclusive: 17.8 µM [inhibitor, partial curve]",–
C=CCn1c(COc2cccc3ccc(C)nc23)nnc1SCC(=O)O,active: 14.1 µM,–
C=CCn1c(SCC(=O)Nc2ccc(-c3nc4ccc(C)cc4s3)cc2)nnc1-c1ccncc1,inactive,–
CCOC(=O)N(c1ccccc1)P1(=S)OCCO1,"inconclusive: 31.5 µM [inhibitor, single point]",–
CC12C=CC(=O)C=C1[C@@H](F)CC1C2C(O)CC2(C)C1CC[C@]2(O)C(=O)CO (stereo partly drawn),inactive,–
CCC(C)NCCOCCOc1ccc(Cl)cc1Br (stereo not drawn),"inconclusive: 19.9 µM [inhibitor, partial curve]",–
CCC(=O)c1cc(F)c(N2CCN(CC)CC2)cc1C,inactive,–
Cc1ccc(NC(=O)c2cc(-c3ccc(C)o3)nc3ccccc23)nc1,"inconclusive: 15.8 µM [inhibitor, single point]",–
COc1cc(NC(=S)NN2CCN(C)CC2)cc(OC)c1OC,"inconclusive: 19.9 µM [inhibitor, single point]",–
FC(F)(F)c1ccccc1-n1c(-c2cnccn2)n[nH]c1=S,"inconclusive: 17.7 µM [inhibitor, single point]",–
CCOC(=O)CSC1=C(C#N)C(=O)NC(c2ccc(OC)c(OC)c2)S1 (stereo not drawn),"inconclusive: 44.6 µM [inhibitor, single point]",–
CCN1CCCC1CNC(=O)c1cc2c(OC)cccc2[nH]1 (stereo not drawn),"inconclusive: 39.8 µM [inhibitor, partial curve]",–
CCC(=NCc1ccco1)c1c(O)n(C)c(=O)n(C)c1=O,inactive,–
CC(C)CN1CCNC(=O)C1CC(=O)N(C)CC1CCOCC1 (stereo not drawn),"inconclusive: 17.7 µM [inhibitor, single point]",–
O=C(O)c1ccc(-n2c(-c3cc(C4CC4)[nH]n3)n[nH]c2=S)cc1,"inconclusive: 15.8 µM [inhibitor, single point]",–
CCC1Oc2ccccc2N(CC(=O)NCCN2CCc3ccccc3C2)C1=O (stereo not drawn),active: 15.8 µM,–
COc1cccc(=O)c2c(C)n(C)c(C)c12,"inconclusive: 15.8 µM [inhibitor, single point]",–
O=C1CSC2=NCN(c3ccc4c(c3)OCO4)CN12,inactive,–
Cc1nnc(SCC(=O)NC(C)(C)C)n1NCc1c(F)cccc1Cl,inactive,–
CC(C(=O)Nc1ccc2c(c1)OCO2)N1CCN(C)CC1 (stereo not drawn),"inconclusive: 7.92 µM [inhibitor, partial curve]",–
O=[N+]([O-])c1ccc(O)c(/C=N/n2c(-c3ccccc3)n[nH]c2=S)c1,"inconclusive: 4.47 µM [inhibitor, partial curve]",–
